These results are taken from PubChem BioAssay AID1963576 (National Center for Advancing Translational Sciences (NCATS), 2024).

Molecules are shown by their SMILES. Out of some 46,000 compounds screened, about 60 (0.1%) were called active. Roughly 3% stayed inconclusive and do not appear here. Calls follow the shape of the dose curve; as a rule, active = well fitted inhibition curve with a large enough effect; inconclusive = small, poorly fitted or top-dose-only effect; inactive = no such curve, though single readings can be large or run the other way. The list shows a part of the results.

The assay in a line: Primary qHTS assay for Inhibitors of ovarian cancer metastasis using an organotypic tumor microenvironment (TME) model. Also: nearly all actives have a fitted effect of over 65% in size.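 As to activity change, negative = inhibition: plate controls were DMSO wells for no effect and tomatine positive control wells for full effect.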 The settings on record: SKOV3ip1-GFP adhesion/invasion on 3D omental model, fluorescence; series mostly up to 45.8 µM; activity change, negative = inhibition: at the top concentration. Put shortly: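 Primary human omental fibroblast/mesothelial 3D culture pre-formed 48 h. SKOV3ip1-GFP cells added with compounds (0.36-46 umol/L), incubated 2 h RT/16 h 37 C, fixed; GFP cells quantified at 488/509 nm.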
In the case of `CCc1ccc(NC(=O)C(=O)NCC(c2cccnc2)N2CCN(Cc3ccccc3)CC2)cc1` (stereo not drawn), the “activity change, negative = inhibition” value was inactive: -15.7%.

Consider `CC(=O)Nc1nonc1-c1nnc(SCC(=O)Nc2ccccc2)n1-c1ccccc1`, for which the “activity change, negative = inhibition” value is inactive: 15.5%.

In the case of `CCCCOc1ccc(CNC(=O)c2ccc(NC(=O)N3CCCCc4ccccc43)cc2)cc1`, the “activity change, negative = inhibition” value is inactive: 0.937%.

As to `CCC(=O)Nc1ccc2nc(SCCOc3ccccc3)sc2c1`, the “activity change, negative = inhibition” value is inactive: -17.8%.

For `CCOc1ccc(CNS(=O)(=O)c2ccc3[nH]c(=O)ccc3c2)cc1`, the “activity change, negative = inhibition” value is inactive: -4.66%.

With `CCC(=O)N1c2ccccc2CC1C(=O)NCCN1CCN(c2cccc(C(F)(F)F)c2)CC1` (stereo not drawn), the “activity change, negative = inhibition” value was inactive: -3.62%.

For `COc1ccccc1OC(C)C(=O)Nc1c(C(=O)c2ccc(Cl)cc2)oc2ccccc12` (stereo not drawn), the compound was called inactive.

In the case of `Cn1c(=O)oc2cc(S(=O)(=O)NC(Cc3ccccc3)C(=O)NCc3ccc(F)cc3)ccc21` (stereo not drawn), the call was inactive.

As to `Cc1ccc(C)c(N2CCN(Cc3nnc(-c4ccc5c(c4)OCO5)o3)CC2)c1`, the “activity change, negative = inhibition” value is inactive: 8.19%.

For `CNS(=O)(=O)c1cn(CC(=O)Nc2cccc(OC)c2)cc1S(=O)(=O)NC`, the “activity change, negative = inhibition” value is inactive: 1.85%.

Regarding `Cc1c(Cl)cccc1NC(=O)c1noc2c1CCCC2`, the “activity change, negative = inhibition” value is inactive: -8.42%.

With `Cc1ccc(NC(=O)CSc2ncn[nH]2)cc1C`, the “activity change, negative = inhibition” value is inactive: 8.65%.

As for `CCOc1ccccc1NC(=O)CCc1c(C)nn(-c2ccc(N3CCOCC3)nn2)c1C`, the “activity change, negative = inhibition” value was inactive: 2.46%.

Take `CCOC(=O)Cn1c(=O)n(CC2CCCO2)c2nc(-c3cccc(C)c3)nc(C(N)=O)c21` (stereo not drawn): the call was inactive.

Regarding `COC(=O)c1ccc(-n2c(CCC(=O)O)ccc2-c2ccc(C)cc2)cc1`, the “activity change, negative = inhibition” value was inactive: -5.02%.

`Cc1ccc(-n2cc(-c3ccccc3)nc2S(=O)(=O)CC(=O)Nc2ccc(F)cc2)cc1`: the “activity change, negative = inhibition” value was inactive: -12.3%.

On to `COc1ccc(-n2nc(C(=O)Nc3ccc(C)cn3)c3c4ccccc4n(C)c3c2=O)cc1`, for which the “activity change, negative = inhibition” value is inactive: 3.5%.

For `CCCCSCCCNC(=O)c1cn(C)c2ccc(S(=O)(=O)N3CCCCC3)cc2c1=O`, the “activity change, negative = inhibition” value was inactive: -2.43%.

As for `COc1cccc(CNC(=O)c2ccc3c(c2)nnn3C2CCCC2)c1`, the result was inactive.

Regarding `Cc1ccc(N(CC(=O)NCc2ccc(F)cc2)S(=O)(=O)c2c(C)nn(C)c2C)cc1`, the “activity change, negative = inhibition” value is inactive: -13.8%.

On to `Cc1ccc(C)c(N2CCN(C(=O)C3CCCN(S(=O)(=O)c4cccc5nsnc45)C3)CC2)c1` (stereo not drawn), for which the “activity change, negative = inhibition” value was inactive: 20.3%.

With `CCN(CC)C(=O)Cn1c(=O)n(-c2ccc(OC)cc2OC)c(=O)c2c(C)c(C(=O)N(CC)CC)sc21`, the compound was called inactive.

Consider `COc1ccc(NC(=O)c2c(-c3ccc(C)cc3)nnc3ccccc23)cc1Cl`, for which the “activity change, negative = inhibition” value is inactive: -0.0584%.

For `COc1ccc(OC)c(NC(=O)Cn2ccc3ccccc3c2=O)c1`, the compound was called inactive.

Take `COc1ccccc1C(=O)Nc1nnc(SCc2cc(=O)c3cc(Cl)ccc3[nH]2)s1`: the “activity change, negative = inhibition” value is inactive: 6.95%.

For `O=C(CNC(=O)c1ccccc1F)OCc1cc(=O)n2ccsc2n1`, the “activity change, negative = inhibition” value is inactive: 59.8%.

With `Cc1ccc(CN2CCN(C3CCN(C(=O)c4ccccc4)CC3)C(=O)C2=O)cc1`, the “activity change, negative = inhibition” value is inactive: -2.25%.

Take `Cc1nc(-c2ccc(Cl)cc2)sc1CCNC(=O)Cc1ccc(F)cc1`: the “activity change, negative = inhibition” value was inactive: -28.3%.

Take `O=S(=O)(c1ccccc1)c1nc(-c2ccc(Cl)cc2Cl)oc1N1CCCCC1`: the “activity change, negative = inhibition” value was inactive: 17.8%.

Turning to `CCN(CC)CCCNC(=O)c1cn(CC)c2ccc(S(=O)(=O)N3CCc4ccccc4C3)cc2c1=O`, the call was inactive.

With `Cc1ccc(C(=O)Nc2cccc(O)c2)cc1S(=O)(=O)N1CCCCCC1`, the “activity change, negative = inhibition” value is inactive: -14.8%.

`COc1cccc(NC(=O)CSc2nc(=O)n(Cc3ccco3)c3c2CCC3)c1`: the “activity change, negative = inhibition” value is inactive: -0.114%.

As for `COc1cc(C2C(C(=O)OCC(C)C)=C(C)N=C3SCCC(=O)N32)ccc1OCc1ccccc1` (stereo not drawn), the “activity change, negative = inhibition” value was inactive: 29.2%.

Regarding `Cc1cccc(NC(=O)Cn2nnc(C(=O)Nc3ccc(F)c(Cl)c3)c2N)c1`, the “activity change, negative = inhibition” value was inactive: 1.67%.

With `Cc1ccc(Nc2nc3c(S(=O)(=O)c4ccccc4)nnn3c3ccsc23)c(C)c1`, the “activity change, negative = inhibition” value is inactive: -2.44%.

As to `Cc1cccc2sc(N(CCCN(C)C)C(=O)c3ccc(Cl)s3)nc12`, the “activity change, negative = inhibition” value is inactive: -10.1%.

Turning to `Cc1sc2ncn(CC(=O)N3CCN(c4ccc(F)cc4)CC3)c(=O)c2c1S(=O)(=O)N1CCCCC1`, the “activity change, negative = inhibition” value was inactive: -6.24%.

For `Cc1ccc(S(=O)(=O)c2cn(CC(=O)Nc3ccc4c(c3)OCO4)c3ccccc3c2=O)cc1`, the “activity change, negative = inhibition” value was inactive: 52.2%.

In the case of `CC1=C(C(=O)Nc2ccc(C)cc2C)C(C(C)C)n2nc(SCc3ccccc3Cl)nc2N1` (stereo not drawn), the “activity change, negative = inhibition” value was inactive: 0.923%.

Turning to `Cc1cc(C)c2nc(N(Cc3cccnc3)C(=O)c3ccc(S(=O)(=O)N(C)C)cc3)sc2c1`, the compound was classed as inactive.

For `N#Cc1c(NC(=O)c2cccc3ccccc23)sc2c1CCCC2`, the “activity change, negative = inhibition” value was inactive: 59.3%.

As to `O=C(c1ccco1)n1nc(-c2ccccc2)nc1NCc1ccc(F)cc1`, the “activity change, negative = inhibition” value was inactive: -0.582%.

As to `COc1cccc2sc(N(Cc3cccnc3)C(=O)Cc3ccccc3)nc12`, the “activity change, negative = inhibition” value was inactive: 8.14%.

As for `Cc1c(C(=O)Nc2cccc(C(F)(F)F)c2)sc2nc3n(c(=O)c12)CCCC3`, the “activity change, negative = inhibition” value was inactive: -12.7%.

On to `CCN1CCN(c2cc3c(cc2F)c(=O)c(S(=O)(=O)c2ccc(OC)cc2)cn3CC)CC1`, for which the outcome was inactive.

For `Cn1c(C(=O)NCc2ccccc2F)cc2oc3ccccc3c21`, the “activity change, negative = inhibition” value was inactive: 5.95%.

As to `Cc1ccc(S(=O)(=O)N2CCN(Cc3noc(CCC(=O)N4CCCCC4)n3)CC2)c(C)c1`, the “activity change, negative = inhibition” value is inactive: -3.86%.

Regarding `COc1ccc(C2CC(=O)N(Cc3ccc(F)cc3)c3ccccc3S2)cc1` (stereo not drawn), the outcome was inactive.
